# Assay results as given in ChEMBL document CHEMBL1157539, “Thousands of chemical starting points for antimalarial lead identification” (Nature, 2010).
# In all, about 13,000 compounds were measured (“IFI”: median about 4, highest 2% from about 17 on). Some of the results follow.
# Test: GSK_TCMDC: Inhibition Frequency Index (IFI). The number of non-kinase HTS assays where a compound showed > 50 % inhibition, expressed as a percentage of the number of such assays in which the compound was tested (-0 is zero)
# Assay type: functional
row,Structure (SMILES),IFI [%]
1,CCCc1nc2c(N3CC(NC(=O)/C=C/c4ccccc4)C3)cccc2n1C1CC1,0
2,C=CCn1c(Sc2ccc(C#N)c([N+](=O)[O-])c2)nnc1-c1ccc(OC)cc1,2.16
3,COc1ccc(-c2ccc(NC(=O)c3ccc(C#N)cc3)cc2)cc1CN1CCNCC1,2
4,Cc1cc(NC(=O)c2cc(S(=O)(=O)N3CCCCC3)ccc2C)no1,-0
5,COc1ccc2[nH]ccc(=NN=Cc3ccc(F)cc3)c2c1,2.22
6,CN1CCC(N2CCC(Oc3cccc(C(=O)NCCCC4CCCC4)c3)CC2)CC1,14.3
7,O=C(Nc1ccc(Cn2ncc(N3CCCNCC3)c(Cl)c2=O)cc1)Nc1cc(Cl)cc(Cl)c1,2.94
8,COc1ccc(OC)c(NC(=O)C2c3ccccc3C(=O)N(CC(C)C)C2c2cccs2)c1 (centres undefined),0
9,Cc1cc(=NN=Cc2ccc(F)cc2)c2ccc(F)cc2[nH]1,0.71
10,Cc1nc(C)c(-c2ccc(C(F)(F)F)cc2)c(O)c1Br,0
11,CCCCCN1CCCC1CNS(=O)(=O)c1ccc(C(=O)Nc2cccc(C(F)(F)F)c2)cc1 (centres undefined),4.88
12,CC(=O)Nc1ccc(C(=O)Nc2ccc(-c3csc(-c4nc5ccccc5[nH]4)c3)cc2)cn1,0.9
13,CCN1CCN(c2cc(C)c3cc(NC(=O)c4ccc(OC)c(OC)c4)ccc3n2)CC1,2.26
14,COc1ccc2[nH]c(C)cc(=NN=Cc3ccncc3)c2c1,0.71
15,O=c1ccccn1CCCC1CCCCN1 (centres undefined),0
16,COc1ccc2nccc(CCC3(O)CCC(NCc4cc5c(cc4F)SCC(=O)N5)CC3)c2c1 (centres undefined),3.6
17,O=C(Nc1ccc(NC2=NCCN2)cc1)Nc1ccc(NC2=NCCN2)cc1,1.52
18,N#Cc1ccc(NC(=O)c2ccc(Cc3ccc4c(c3)CCN(C3CCC3)CC4)cn2)cc1,8.41
19,O=C(Nc1cccc(-c2cccc(-c3nc4ccccc4[nH]3)c2)c1)c1ccncc1,8.33
20,CSC1=NC(=Nc2c(C)cccc2C)C2(CCC(C(C)(C)C)CC2)N1c1ccc(O)cc1 (centres undefined),7.3

row,Structure (SMILES),IFI [%]
1,COc1cccc(C2=CC(c3ccccc3)n3ncc(C(=O)Nc4ccc(Cl)cc4)c3N2)c1 (centres undefined),2.67
2,NC(=O)c1cc2nc(NC3CCC3)nc(Nc3cccc4[nH]ncc34)c2[nH]1,3.57
3,Cc1[nH]c2ccccc2c1C=NNc1nc(=Nc2ccccc2)[nH]c(=Nc2ccccc2)[nH]1,2.94
4,COc1nc(NCC(C)C)nc(Oc2ccc(=O)n(Cc3ccccc3)n2)n1,-0
5,CCC1CCc2cc(N)cc(-c3nc4c(c(C)nn4CC)c(=O)[nH]3)c2O1 (centres undefined),3.7
6,COc1ccc2nccc([C@@H](O)CN3CCC(NCc4cc5oc(=O)[nH]c5cc4Cl)CC3)c2c1,2.86
7,Cc1cccc2nc(-c3ccc(-c4cccc(C(=O)N5CCCCC5C(C)O)c4)s3)[nH]c12 (centres undefined),3.81
8,O=C(Nc1ccc(Br)cc1)Nc1ccc(Cn2ncc(N3CCCNCC3)c(Cl)c2=O)cc1,7.35
9,Cc1ccc(Oc2ccc(NC(=O)CNc3ccccc3N3CCCC3=O)cc2)cc1,1.61
10,CN1CCN(Cc2ccc(-c3cc4c(Nc5ccc(OCc6cccc(F)c6)c(Cl)c5)ncnc4s3)[nH]2)CC1,5.22
11,COc1cc2c(cc1OC)C(c1ccc(Br)cc1)CN(C)CC2 (centres undefined),1.49
12,CCc1c(C(=O)NC2CCC(N3CCC(c4ccccc4C)CC3)CC2)[nH]c2ccc(OC)cc12 (centres undefined),13.1
13,COc1ccc(CCN(C)CCCOc2ccc(NC(=O)c3cccc4c(=O)c5ccccc5[nH]c34)cc2)cc1OC,10.3
14,N=C(N)c1ccc(-c2cc(-c3cccc(C(=N)N)c3)on2)cc1,-0
15,COc1ccc2ncc(Cl)c(NCC3(O)CCC(NCc4ccc5c(n4)NC(=O)CS5)CC3)c2n1 (centres undefined),6.77
16,O=[N+]([O-])c1cccc(-n2nc(NCc3ccc(Cl)cc3)nc2-c2ccc(F)c(C(F)(F)F)c2)c1,2.44
17,Cc1ccc(NC(=O)Nc2ccc(Cn3ncc(N4CCCNCC4)c(Cl)c3=O)cc2)cc1,5.88
18,Oc1ccccc1CCNCC1CCc2ccccc2C1 (centres undefined),1.47
19,CCCN(CC1CC1)c1ncc(-c2cccc(CNCc3ccccc3O)c2)cn1,11.6
20,Cc1cc(NC(=O)c2coc3cc(F)c(N4CC(C)N(C)C(C)C4)cc23)ccc1-n1ccnc1 (centres undefined),1.42

row,Structure (SMILES),IFI [%]
1,COc1cccc(-c2cc3c(NCc4ccncc4)nccc3s2)c1,5.07
2,O=C(Nc1ccccc1-c1nc2ccccc2s1)C(Cl)(Cl)Cl,2.78
3,COc1ccc2[nH]c(C(=O)Nc3cccc(-c4ccc(CN(C)C)cc4)c3)cc2c1,3.33
4,CC(C)(C)C1CCc2onc(C(=O)Nc3cc(Cl)ccc3O)c2C1 (centres undefined),4.9
5,O=C(Cn1cc(C(F)(F)F)cc(Cl)c1=O)N1CCN(S(=O)(=O)c2ccc(Cl)cc2)CC1,-0
6,Clc1ccc(-c2cnc3ccc(NCCc4cccnc4)nn23)cc1,6.82
7,CC(C)c1ccc(CN2CCCCC(NC(=O)c3cc(-c4ccccc4Cl)cs3)C2)cc1 (centres undefined),5.45
8,O=C(N[C@H]1CCCC[C@H]1C(=O)O)c1ccccc1,0.75
9,COc1cc2nccc(Nc3cc(C)cc(O)c3)c2cc1OC,2.86
10,Cc1ccc(F)c(OC2CCN(c3ccc(C(=O)NC4CC4)cn3)CC2)c1,6.25
11,Cc1cccc2nc(-c3cccc(-c4cccc(NC(=O)CN5CCN(C)CC5)c4)c3)[nH]c12,1.8
12,NC(=O)c1cnc2ccc(-c3cncs3)cc2c1Nc1ccc(F)c(Cl)c1,6.43
13,CN1CCN(c2ccc(-c3cccc(NC(=O)c4cccc([N+](=O)[O-])c4)c3)nn2)CC1,2.41
14,CC(=O)Oc1cc(C)ccc1C1CCN(CCCCNC(=O)c2ccc(-c3ccc(C(F)(F)F)cc3)cc2)CC1,2.26
15,CC(=O)N/N=C/[C@H](CCc1ccccc1)NC(=O)[C@H](CC(C)C)NC(=O)c1cccc(OCCN2CCOCC2)c1,4.59
16,O=C(Nc1cc(C(F)(F)F)cc(C(F)(F)F)c1)c1cccc([N+](=O)[O-])c1,1.34
17,CC1CCN(Cc2cccc(C(=O)NCc3ccc(F)c(-c4cccc(CN5CCN[C@@H](C)C5)c4)c3)c2)CC1,5.04
18,CCOc1cc2ccccc2cc1CNCCCCCCNCc1cc2ccccc2cc1OCC,11.5
19,CC(C)(C)NS(=O)(=O)c1cc(C(=O)N2CCC(CCN3CCC(C(=O)c4ccc(F)cc4)CC3)(c3cccc(F)c3)CC2)c(Cl)cc1F,3.55
